# Test results published in PubChem BioAssay AID463173 (ICCB-Longwood Screening Facility, Harvard Medical School, 2010).
# In all, about 52,000 compounds went through this assay and about 4,300 (8.3%) were called active. Cut-off read from the data, not from the text of the source: active = survival mostly below about 52% (no sharp cut-off); inactive = mostly above about 56%. Some of the results follow.
# Tested on: DeltatarO mutant
# Assay: growth inhibition of S. aureus wild type versus tarO mutant, primary screen, teichoic acid synthesis inhibitors, RN4220, OD600 (AID 463173)
# Conditions: OD600, 18 h, hits give low values, screened at 18.75 µg/mL (by protocol)
row,SMILES,survival
1,Clc1cccc(-n2ncc3c(Nc4ccc5c(c4)OCCO5)ncnc32)c1,inactive: 55%
2,Cc1ccc(C)c(Cn2c(=O)n(-c3ccc(F)cc3)c(=O)c3sc4ccccc4c32)c1,inactive: 95%
3,COc1ccc(N2CCN(C(=O)Cn3c(-c4cccs4)cc4ccccc43)CC2)cc1,inactive: 80%
4,CC(=O)N1CCc2cc(S(=O)(=O)NC(Cc3ccccc3)C(=O)Nc3ccc(C)cc3C)ccc21 (stereo not given),inactive: 68%
5,O=C(CSc1nc2ccsc2c(=O)n1Cc1ccccc1F)NCc1ccccc1Cl,inactive: 108%
6,Cc1ccc(NC(=O)Nc2cccs2)c(C)c1,inactive: 91%
7,CCN1C(=O)c2ccccc2Sc2ccc(NC(=O)c3cccc(C)c3)cc21,inactive: 89%
8,COc1ccc(N(C(=O)c2cccc(C)c2)S(=O)(=O)c2ccc3c(c2)n(C)c(=O)n3C)cc1,inactive: 91%
9,CCOC(=O)c1cc(OC(=O)c2ccccc2OC)n(-c2ccccc2)n1,inactive: 54%
10,O=C(Cn1c(=O)n(-c2ccccc2)c(=O)c2ccc(C(=O)NCc3ccc4c(c3)OCO4)cc21)Nc1ccc(F)c(Cl)c1,inactive: 65%
11,CN(CCCNC(=O)c1cc2c(=O)n(C)c3ccccc3c2s1)Cc1ccccc1,inactive: 94%
12,COC(=O)Cn1c2ccccc2c2nc(C)sc21,inactive: 79%
13,CC(C(=O)O)N1C(=O)/C(=C/c2ccco2)SC1=S (stereo not given),inactive: 99%
14,COC(=O)c1c(NC(=O)/C=C/c2ccc(OC)cc2)sc2c1CCC2,inactive: 102%
15,COc1ccc(CNC(=O)CSc2ncc3c(n2)-c2cc(Cl)ccc2N(C)S3(=O)=O)cc1,inactive: 75%
16,CC(C)c1cnc2c(c1SCC(=O)Nc1ccc(C(N)=O)cc1)c(=O)n(C)c(=O)n2C,inactive: 72%
17,CCOC(=O)Cn1c(-c2cccs2)cc2cc(Cl)ccc21,inactive: 59%
18,CCOC(=O)C1(C(=O)OCC)CC1(C(=O)OCC)C(=O)OCC,inactive: 89%
19,O=C(Cn1c(=O)ccc2cc(S(=O)(=O)N3CCCC3)ccc21)Nc1ccc(Cl)cc1,inactive: 91%
20,Cc1ccc(Cl)cc1NC(=O)CSCc1cnn(-c2ccccc2)c1-n1cccc1,inactive: 70%
21,Cn1nnnc1SCCCNCc1ccccc1OCc1ccc(F)cc1,active: 57%
22,CCN(C(=O)c1cn(C)c(=O)c2ccccc12)c1cccc(C)c1,inactive: 162%
23,Cc1cccc(NS(=O)(=O)c2ccc3c(c2)CCN3C(=O)C2CC2)c1C,inactive: 64%

row,SMILES,survival
1,O=C(c1ccccc1Br)N(Cc1ccccc1F)C1CCS(=O)(=O)C1 (stereo not given),inactive: 110%
2,CCC(C)NC(=O)CSCc1nc(-c2ccc(C)cc2)oc1C (stereo not given),inactive: 81%
3,CN1CCN(C(=O)c2ccc3c(c2)N(Cc2ccc(Cl)cc2)C(=O)c2ccccc2S3(=O)=O)CC1,inactive: 78%
4,Cc1cccc(CC(=O)NCCc2sc3nc(-c4ccc(F)cc4)nn3c2C)c1,inactive: 91%
5,c1ccc2c(c1)[nH]c1nc(NN=C3CCC(=NNc4nnc5c(n4)[nH]c4ccccc45)CC3)nnc12,inactive: 93%
6,CN(C)CC(O)C1CCOC(C)(C)C1 (stereo not given),inactive: 101%
7,CCOc1ccc(CCNC(=O)c2ccc(-c3nc(CSc4ccccc4)c(C)o3)cc2)cc1,inactive: 85%
8,CCc1ccc(N(CC)C(=O)c2sc3nc4n(c(=O)c3c2C)CCCC4)cc1,inactive: 63%
9,CCN(CC)c1ccc(CNS(=O)(=O)c2cc3c(cc2C)NC(=O)CO3)cc1,inactive: 69%
10,Nc1ccc2c(c1)C(=O)N(CCCCN1C(=O)c3ccc(N)cc3C1=O)C2=O,inactive: 87%
11,COc1ccc(NC(=O)CSc2ncc3c(n2)-c2ccccc2N(C)S3(=O)=O)cc1Cl,inactive: 103%
12,Cn1c(SCc2ccccc2Cl)nc(=O)c2c1NC(=O)CC2c1cc(F)ccc1F (stereo not given),inactive: 45%
13,CCOc1ccc(NC(=O)Nc2c[nH]c(=O)[nH]c2=O)cc1,inactive: 93%
14,CCOc1ccc(C(=O)NCCc2sc(-c3ccc(F)cc3)nc2C)cc1,inactive: 90%
15,COc1ccc(Nc2ncc(C(=O)N3CCN(c4ccccc4OC)CC3)c3ccccc23)cc1,inactive: 62%
16,CCOC(=O)c1ccc(NC(=O)CN2C(=O)c3cccnc3Sc3ccccc32)cc1,inactive: 84%
17,O=C(Cn1ncc2c3ccccc3n(Cc3cccc(Cl)c3)c2c1=O)NCCC1=CCCCC1,inactive: 90%
18,Cc1ccccc1Cn1c(=O)n(CCCCCC(=O)NCc2ccc3c(c2)OCO3)c(=O)c2sccc21,inactive: 101%
19,Cc1ccc(S(=O)(=O)Cn2nnnc2C(C(C)C)N2CCSCC2)cc1 (stereo not given),inactive: 90%
20,Cc1nccn1S(=O)(=O)c1c(C(C)C)cc(C(C)C)cc1C(C)C,inactive: 86%
21,CC(C)Sc1nc2sc3c(c2c(=O)n1-c1ccccc1)CCCC3,active: -3%
22,CC(=O)c1ccc(N2C(=O)Nc3ccccc3S2(=O)=O)cc1,inactive: 115%
23,Cc1ccc(N2CC(NC(=O)c3ccccc3Br)CC2=O)cc1 (stereo not given),inactive: 95%

row,SMILES,survival
1,O=C(Nc1ccc(F)c(Cl)c1)C1CCN(S(=O)(=O)c2ccc3c(c2)CCCN3C(=O)C2CCC2)CC1,inactive: 94%
2,Cc1ccc(CSc2cn(CCNC(=O)c3cccs3)c3ccccc23)cc1,inactive: 58%
3,O=C(Cn1c(SCC(=O)Nc2ccc(F)cc2)nc2ccccc21)NCc1ccc(Cl)cc1,inactive: 89%
4,Nc1ncc(S(=O)(=O)Nc2ccc(OC(F)(F)F)cc2)cn1,inactive: 79%
5,CCOC(=O)c1ccccc1NC(=O)Cn1c(=O)n(-c2ccc(CC)cc2)c(=O)c2c(C)c(C(=O)N(C)C)sc21,active: 0%
6,Cc1ccc(S(=O)(=O)N2Cc3ccccc3CC2C(=O)N2CCCCC2)cc1 (stereo not given),inactive: 78%
7,CCOc1ccccc1CNC(=O)c1ccc2c(c1)nc1n2CCC(C)C1 (stereo not given),inactive: 122%
8,COc1ccc(OC)c(NC(=O)c2c(NCc3ccc(N(C)C)cc3)sc3c2CCCC3)c1,inactive: 124%
9,COc1cc(OC)cc(C(=O)Nc2ccc3c(c2)n(C)c(=O)c(=O)n3C)c1,inactive: 70%
10,COc1ccc(S(=O)(=O)N(CC(=O)Nc2ccc3c(c2)OCO3)c2ccc(C)cc2)cc1,inactive: 49%
11,O=C(NCc1ccccc1Cl)c1ccc(NC(=O)N2CCSc3ccccc32)cc1,inactive: 59%
12,COc1ccccc1N(CC(=O)Nc1cc(C)cc(C)c1)S(C)(=O)=O,inactive: 82%
13,O=C(Nc1nnc(S(=O)(=O)N2CCCCCC2)s1)c1ccccc1,active: 38%
14,CCc1ccc(NS(=O)(=O)c2c(-c3ccccc3)csc2C(=O)OC)cc1,inactive: 78%
15,Cc1cc(NCc2ccc(Cl)cc2)n2cnnc2n1,inactive: 87%
16,CCc1cccc(NC(=O)Cn2ccn3nc(-c4ccc(OC)c(OC)c4)cc3c2=O)c1,inactive: 84%
17,CN(Cc1ccco1)S(=O)(=O)c1nnc(NC(=O)c2ccccc2)s1,active: 23%
18,O=C(Nc1ccc(F)cc1)c1ccc2c(c1)NC(=O)c1ccccc1S2,inactive: 85%
19,Cc1cccc(-c2noc(-c3ccc(NCc4cccnc4)c([N+](=O)[O-])c3)n2)c1,inactive: 69%
20,CCOc1ccc(NC(=O)c2nnn(-c3ccc(F)c(Cl)c3)c2C)cc1,inactive: 91%
21,CCOC(=O)c1cc2ccc(O)cc2oc1=O,inactive: 75%
22,CC1=C(C(=O)Nc2ccccc2)C(c2ccccn2)n2nc(SCc3ccccc3Cl)nc2N1 (stereo not given),inactive: 149%
23,CCC(=O)Nc1cccc(OCc2cc(=O)n3cc(C)ccc3n2)c1,inactive: 55%

row,SMILES,survival
1,Cc1nc2c(-c3ccccc3)c(C)nn2c(C)c1CCC(=O)NCc1ccccc1,inactive: 85%
2,CCn1cc2nc(SCc3cccc(C)c3)n(CCc3ccccc3)c(=O)c2n1,inactive: 71%
3,CCOC(=O)c1ccc(NC(=O)CCC(=O)N2CCSc3ccccc32)cc1,inactive: 59%
4,Cc1ccc(S(=O)(=O)n2nc(-c3ccco3)nc2NCc2ccc(N(C)C)cc2)cc1,inactive: 70%
5,Cn1cc(S(=O)(=O)N2CCCCC2)cc1C(=O)Nc1ccc(OC(F)(F)F)cc1,inactive: 84%
6,O=C(Cn1cc(S(=O)(=O)c2ccccc2)c(=O)c2cc3c(cc21)OCO3)Nc1ccccc1,inactive: 108%
7,CCc1ccc2occ(CC(=O)Nc3sc4c(c3C(=O)NCCOC)CCCC4)c2c1,inactive: 77%
8,Cc1ccc(S(=O)(=O)C(CNC(=O)c2ccc(C(F)(F)F)cc2)c2ccco2)cc1 (stereo not given),inactive: 130%
9,Cc1noc(-c2ccc(-c3noc(-c4cccc(Cl)c4)n3)cc2)n1,inactive: 60%
10,Cc1nc2nc(SCC(=O)NC3CCC(C)CC3)nn2c(C)c1Cc1ccccc1Cl (stereo not given),inactive: 83%
11,COc1ccc(CNC(=O)CN(C(=O)c2ccc(N3CCCC3)nc2)c2ccccc2C)cc1,inactive: 75%
12,Cc1ccc(-n2nc(C)c(C(=O)NCCCN3CCN(c4cccc(Cl)c4)CC3)c2-n2cccc2)cc1,active: 0%
13,CCc1ccccc1NC(=O)C1CCN(c2nc3ccccc3[nH]2)CC1,inactive: 85%
14,COc1ccc(C(=O)NCc2nc(-c3cccc(C)c3)no2)cc1OC,inactive: 98%
15,Cc1nc(-c2ccc(S(=O)(=O)NCc3ccc(F)cc3)cc2)co1,inactive: 89%
16,COCc1c(N)c(C)nc(Cl)c1C#N,inactive: 91%
17,COc1cccc(C(=O)COC(=O)c2cc(-c3cccs3)nc3ccccc23)c1,inactive: 54%
18,Cc1cc(NS(=O)(=O)c2cn(C)c(C)n2)ccc1Br,inactive: 92%
19,Cc1ccc2cc3cc(C(=O)N4CCN(c5ccccc5)CC4)sc3nc2c1,inactive: 90%
20,COc1cccc(NC(=O)/C(C#N)=C/c2ccc(-c3ccc(C)cc3)o2)c1,inactive: 50%
21,Cc1ccc(S(=O)(=O)Nc2cccc(-c3ccc(N4CCCC4)nn3)c2)c(C)c1,inactive: 67%
